Data reported in the supplement of paper PMC10126150.
Values marked as one replicate rest on one cluster of the flow cell; about a third of the high ones do not repeat.

Tested on: ATP
Assay: switch fluorescence ratio, 500 uM ATP over buffer (Cy3 cluster intensity, sum of 5 cycles each) (fold (ratio)); higher = stronger signal-on switching upon ATP binding; sequences stand for … in TCGTCGGCAGCGTCAGATGTGTATAAGAGACAGTTTTTTTTTTTTTTTTTTTTTTTTT…TC
Conditions: aptamer strand: ATP DNA aptamer (quencher-CACCTGGGGGAGTATTGCGGAGGAAGG + anchor), 100 nM annealed; ATP concentration: 500 uM; one replicate
Procedure, shortened: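 Imaging in selection buffer was followed by imaging after 15 min with 500 uM ATP at 22 °C, for Cy3-labelled switching-strand clusters annealed to 100 nM quencher-labelled ATP aptamer on a modified Illumina MiSeq flow-cell. Five of these buffer/ATP cycles ran, separated by NaOH stripping and re-annealing. The fluorescence ratio per cluster is summed target-cycle over summed buffer-cycle Cy3 intensity, averaged per switch-domain sequence; clusters outside 100-1000 RFU were removed.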
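Note: ATP exposure 15 min at 22 °C before imaging.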

Sequence	switch fluorescence ratio
TGTTAATGC	1.09
ATGATGTTTC	0.972
TGGTTTTGCA	1.03
AACGTTGTTA	0.98
CGTCCATGCG	0.986
AGCCTGTGAA	0.984
TTAGAGTGTT	1.01
CATTAACCAG	1.01
GAAGCATTGG	1.72
TCACCGGTC	1.11
TTTCTAAAGA	1.05
AGCACAGGCA	1.06
AAAAGGGCGA	1
TGTGTCCTT	0.997
ACGAGGTG	1.05
AAAGATGTGT	1
AAGAGACGGT	1.01
GGTTCAATTA	0.931
TTATCCGTAA	2.96
GCAATAATGT	1.07
TGCCCAGGTG	1.75
CAAGCTACAA	1.15
AAAATTAGCA	1.01

Sequence	switch fluorescence ratio
ACGTGTGTAG	1.02
TGTTAGTCAC	1.03
TAGCTCGCGC	0.987
TGTCGGCGTG	1.08
TAATACATGG	1.06
AACATCTGCG	1.04
AGTTGGTCCG	1.02
GACTTCCTAT	1.1
TCGTGGCCTG	1.02
CCTTGGCGTA	1.04
CAGCGTGTTG	1.05
CGCTTAGGGG	1.01
CGGGACCCCT	0.997
GGTTTTATTA	1.03
ACGGATATGT	1.06
GCTTTGTTCT	1
TGCATATAGG	1.01
AAAGAAAAGT	0.962
GCGCCGTGTG	0.998
GAGGGTGTTT	1.05
ATTAAACAAT	1.01
GTTTTGGCGG	0.975
TAGGGCTCA	1

Sequence	switch fluorescence ratio
AGTGTTATGG	0.987
GGTTGGGCAT	1.02
TATATCCCTC	0.985
TCCATCTATG	1.02
AAAAAAGCTC	0.994
ACAATAAAGA	0.978
CAAAATCATG	1.02
TTTTTGCCCG	0.945
GCCACTATGG	1.04
AAAACTGAT	0.995
TGGCGATTCT	0.985
TTTCTATCCG	1.01
TCCTGAGCGC	0.93
TTACCGATTT	1.04
TAGTATATC	1.02
GGCTTACCGA	1.01
GACATATATA	1.01
ATGAGGTGTT	1.05
AAACGTGGTC	0.963
GTTCTAGCTA	1.05
TTTCTCGTT	0.99
CACTAATGTA	1.01
ATGCGCAACG	1.03

Sequence	switch fluorescence ratio
TGGTTGCAAA	0.984
ACCCCGTCGG	1.03
TTATGACTTG	1.01
GGCGAGGGTT	1.02
CTCCGTTTT	3.28
TCCGTTCGAC	1.72
AGGCCTGCAC	1.01
TACTCTACGG	1.5
CATGGCATGG	0.986
CAGTAGCCGC	1.07
GGGTAATTCG	0.98
TTCGCGTGCT	1.01
TAGGCTGAT	0.982
AATGGCATGC	1.02
GTTTCCTCTC	1.01
CAGTCCAACG	1.02
TGTACGAAGT	0.98
CTCTTCCAGA	0.972
ATTGACGCGC	1.01
GAAACTTAAT	1.03
TTACATCATG	0.962
CGTCCGTCAG	2.03
GGGCCTTTGT	1

Sequence	switch fluorescence ratio
TAAGGGCATG	0.982
CAGGGGTCG	1.03
GCTTAGCCAC	1.05
TGAGCTAGT	0.959
TCACATTTCT	0.999
CTTAAAGAAT	1.38
TAGACGGACT	1.17
GATCAATTAT	1.09
TGAGGCCCTG	0.981
AAAGTTTGTG	0.95
CGACATTTCT	1.05
CTTGCCCTTT	0.981
CACATCCCCC	1.16
CGAAAGGGAA	0.985
TAGCACGTCT	0.934
ATGAGGACAT	1.02
CTCTTTGTTT	1.03
TGGGGACGAG	0.951
CGGTTTGTTG	1
TTCGTGTTG	0.998
TTGAGTGGCC	1.01
TTAAACAAT	1.04
TCAACTTTAC	1.27

Sequence	switch fluorescence ratio
TTACACACGT	1.44
CTTAGGGCT	0.99
CTGAGCGCGA	1.1
TGTAGATAGT	1.01
ATTAGGTCGC	1.01
CCAATATTGA	1.03
TGATGAAGT	1.11
AACGCAGACA	1.26
GTTGCGCAGT	1.04
TTAGCTGCCT	1.04
TCTAGACGCA	1.07
TGACACTGTT	0.996
GAACCGAGGC	0.982
AGTAGGTGAA	1.05
AGTAACCCGA	1.07
TGATGTATCT	1.02
TCATAATCAC	1.14
TATTTGCCTA	1.02
CTAGCTGGTT	1.1
GTCAACTCCG	1.18
TAGTGTGAGG	0.984
CATGAGAGCC	1.01
CTGCTGATCC	1.09

Sequence	switch fluorescence ratio
CAAAAGGA	0.98
TTAAAAGGCG	1
GCCGGGATAA	1.24
GATCAGTGGA	1.01
GCATGCAATC	1.1
ATGGGTCAGA	1.05
CCCAGGGCCG	1.08
GCGATTAGCA	0.947
GGGTCGCCT	1
AGTGTTCTT	0.96
GTATATTGGC	0.969
AAGAACGTCG	1.06
CAACCGGCCG	1.01
AAGCTGCCTC	1.53
CCTATTGAGA	0.954
TGGAAGGCAG	1.02
TTACCTGTTT	0.981
CAGTATAGGG	1.09
TCCGTGTATA	1.04
